Experimental data from US10781431B2, “Cardiotonic steroid antagonists and related methods” (MARSHALL UNIVERSITY RESEARCH CORPORTION, priority 2014, dated 2020).

Experiments:
[1] = test system: ouabain-induced ERK phosphorylation in LLC-PK1 cells; assay: ouabain-induced ERK phosphorylation, Western blot; type: cell-based; details: 0.5 μM peptide for 1 hour, then 100 nM ouabain for 10 minutes, FIG. 7A
Protocol: (§1) The cells were then stimulated with 100 nM ouabain for 10 minutes and assayed for phosphorylated ERK by Western blot.

[2] = test system: LLC-PK1 cells; assay: ouabain-mediated cell proliferation; type: cell-based; details: 1 μM peptide, 10 nM ouabain, FIG. 8
Protocol: as §1

NaSH2: CD2C2 synthesized with the same TAT tag, not phosphorylated at Y260 (GRKKRRQRRRPPQSTNCVEGTARGIVVYTGD; TAT tag; HIV-TAT NaSH2 Fusion Peptide)
ouabain-induced ERK phosphorylation [1]: but not NaSH2
inhibition of ouabain-induced cell proliferation [2]: ineffective at the concentration utilized
